Measurements taken from the BET-seq Pho4 binding data (Le et al. 2018).
The list shows a part of the results. These are noisy estimates, calculated here from bound and input reads.

Each sequence was assayed against T1, Pho4 (S. cerevisiae) (UniProt P07270) (assay: relative binding free energy (BET-seq); higher = weaker binding). Details: reference: library average.
T1 sequence: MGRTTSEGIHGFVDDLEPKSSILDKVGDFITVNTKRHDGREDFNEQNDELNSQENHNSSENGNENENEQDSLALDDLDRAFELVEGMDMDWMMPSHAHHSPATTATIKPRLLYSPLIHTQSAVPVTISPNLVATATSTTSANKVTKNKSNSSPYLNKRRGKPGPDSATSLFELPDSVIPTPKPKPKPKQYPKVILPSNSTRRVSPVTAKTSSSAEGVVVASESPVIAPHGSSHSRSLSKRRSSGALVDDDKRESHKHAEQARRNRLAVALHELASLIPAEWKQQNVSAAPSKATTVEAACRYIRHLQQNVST

Sequence	relative binding free energy
TAGATCACGTGGTCTT	0.19 kcal/mol
GAGTGCACGTGCGTAT	-0.08 kcal/mol
TAGGGCACGTGTGACA	-0.05 kcal/mol
TGGAGCACGTGTAGGA	-0.08 kcal/mol
TTGTCCACGTGTGGAT	0.1 kcal/mol
CGGTGCACGTGGAGTG	0.02 kcal/mol
TATGGCACGTGCTTGT	-0.11 kcal/mol
TTGTGCACGTGTGTAA	0.1 kcal/mol
TTGCTCACGTGTCGTG	0.09 kcal/mol
GTCTGCACGTGTGTGG	0.08 kcal/mol
CGAGTCACGTGGTGCG	0.16 kcal/mol
ACAGGCACGTGAAGGT	0.05 kcal/mol
GTTTTCACGTGTAGGA	0.21 kcal/mol
AAGGGCACGTGGGTCA	-0.27 kcal/mol
AGGGGCACGTGCAAGC	-0.16 kcal/mol
CGTCGCACGTGGGGTG	-0.21 kcal/mol
CAGTGCACGTGTAATT	0.03 kcal/mol
TTTGGCACGTGCAATA	-0.06 kcal/mol
GTTTTCACGTGTTGCC	0.38 kcal/mol
GTGTTCACGTGGATGG	0.34 kcal/mol
GAGTTCACGTGATGAA	0.51 kcal/mol
AGTTTCACGTGTGTTT	0.26 kcal/mol
TGTTTCACGTGTAAGG	0.4 kcal/mol

Sequence	relative binding free energy
TGGATCACGTGTATAA	0.21 kcal/mol
AATGACACGTGTTAAT	0.1 kcal/mol
TAGATCACGTGCGTGT	0.01 kcal/mol
GAAGGCACGTGGTCGG	-0.14 kcal/mol
AAGTGCACGTGCGGTA	-0.08 kcal/mol
GGGAGCACGTGCGAGG	-0.18 kcal/mol
TTTGGCACGTGCTGAT	-0.05 kcal/mol
TTGTTCACGTGATACT	0.32 kcal/mol
CCGGGCACGTGCGGTG	-0.19 kcal/mol
GATTGCACGTGGTATA	-0.01 kcal/mol
ATCTTCACGTGGTCTG	0.22 kcal/mol
AGATTCACGTGTGGTG	0.34 kcal/mol
GGATGCACGTGTGAGG	0.02 kcal/mol
TTTGTCACGTGAGCGA	0.17 kcal/mol
GTAGTCACGTGAGTAA	0.23 kcal/mol
TCTGGCACGTGCGAGG	-0.08 kcal/mol
TGTAGCACGTGATTGC	-0.03 kcal/mol
ATGGGCACGTGGAGTC	-0.04 kcal/mol
TGGTCCACGTGTGATT	-0.07 kcal/mol
GTGGGCACGTGCGATT	-0.02 kcal/mol
GCTAACACGTGGTAGG	0.04 kcal/mol
GTTTGCACGTGGCCTT	-0.12 kcal/mol
TTGTTCACGTGTAGAG	0.24 kcal/mol

Sequence	relative binding free energy
GGATGCACGTGCGCGT	-0.04 kcal/mol
AGGGACACGTGAGAGT	0.23 kcal/mol
GAGGGCACGTGAGGCT	0.24 kcal/mol
GTGAGCACGTGGGGGT	-0.27 kcal/mol
ATTGTCACGTGAGGAA	0.33 kcal/mol
ATTAGCACGTGGTGGG	-0.17 kcal/mol
TCGTACACGTGAATGT	0.33 kcal/mol
GAGGGCACGTGAGACA	0.21 kcal/mol
TTGTCCACGTGTATTA	-0.02 kcal/mol
ATTATCACGTGGGTGT	-0.05 kcal/mol
TGTCACACGTGGGTAG	0.01 kcal/mol
AAGATCACGTGTAATG	0.21 kcal/mol
GTGTGCACGTGTGTAA	0 kcal/mol
ACAAGCACGTGTTGGG	-0.04 kcal/mol
CGTCACACGTGTGGGG	0.09 kcal/mol
ATTGACACGTGGGGAG	-0.12 kcal/mol
GTTTTCACGTGCGGTA	0.2 kcal/mol
CATCGCACGTGGGGTA	-0.15 kcal/mol
TTGTTCACGTGGCGTC	0.14 kcal/mol
CGTTTCACGTGCGTCG	0.26 kcal/mol
AGGTTCACGTGTGCAT	0.23 kcal/mol
TTGTTCACGTGTCTTT	0.29 kcal/mol
ATTTTCACGTGTTCCT	0.22 kcal/mol

Sequence	relative binding free energy
TCTTTCACGTGAGTGA	0.33 kcal/mol
AGAGGCACGTGGTTAA	-0.23 kcal/mol
CGGTTCACGTGGGCAT	0.09 kcal/mol
TAGGGCACGTGCTGTT	-0.1 kcal/mol
AAAATCACGTGTGCGT	0.21 kcal/mol
CAAGGCACGTGGTGGC	-0.11 kcal/mol
TTGGTCACGTGGTAGC	0.03 kcal/mol
ATTGCCACGTGTGAGG	-0.06 kcal/mol
TAAGTCACGTGGCGCG	0.07 kcal/mol
ATTATCACGTGCGGAT	0.36 kcal/mol
GACGGCACGTGTGGTA	-0.12 kcal/mol
AGTATCACGTGAATAT	0.28 kcal/mol
TTTTGCACGTGTAGCT	0 kcal/mol
TGTTGCACGTGGGATG	0 kcal/mol
TGATGCACGTGTCTGT	0.05 kcal/mol
TGATGCACGTGTCGGT	0.09 kcal/mol
TTAGGCACGTGCTTGG	-0.06 kcal/mol
GCCCGCACGTGGGGGG	-0.18 kcal/mol
AAAGACACGTGGTGGA	-0.1 kcal/mol
TATATCACGTGAAGGA	0.26 kcal/mol
AGAGTCACGTGGCTGT	0 kcal/mol
AATAGCACGTGGGGTA	-0.31 kcal/mol
GGAGTCACGTGGGGAA	0.14 kcal/mol

Sequence	relative binding free energy
GATTTCACGTGTTCTG	0.37 kcal/mol
TAGGCCACGTGTGTTA	-0.1 kcal/mol
AGCTACACGTGGCGTG	0.07 kcal/mol
TAGTCCACGTGTTTGG	0 kcal/mol
GCAGTCACGTGGCGGT	-0.03 kcal/mol
GCGGTCACGTGGGTCA	0.13 kcal/mol
AGAGGCACGTGATGTG	-0.02 kcal/mol
GAGGTCACGTGTAGGC	0.21 kcal/mol
ATGAGCACGTGATTAA	0.07 kcal/mol
GTAATCACGTGAGGGA	0.32 kcal/mol
CGTGTCACGTGGTTCT	0.08 kcal/mol
CATTTCACGTGGATTG	0.24 kcal/mol
AGGTTCACGTGCGAGG	0.24 kcal/mol
TGGTTCACGTGCTTAG	0.24 kcal/mol
GGAGTCACGTGATTGA	0.22 kcal/mol
TGAGGCACGTGTTGGT	-0.03 kcal/mol
GAGTACACGTGGGCGG	0.03 kcal/mol
GAGGCCACGTGGGTGT	-0.13 kcal/mol
GAGGGCACGTGGTGGT	-0.08 kcal/mol
CTTTCCACGTGGGTTT	0.08 kcal/mol
ACGGGCACGTGATAGT	0.04 kcal/mol
AAGGACACGTGGGTCG	-0.12 kcal/mol
AGTTTCACGTGGAGGG	0.3 kcal/mol
